Assay [1] deals with T1, human SYCE2 (1–218), yeast two-hybrid fusion (human) (UniProt Q6PIF2).
T1 sequence: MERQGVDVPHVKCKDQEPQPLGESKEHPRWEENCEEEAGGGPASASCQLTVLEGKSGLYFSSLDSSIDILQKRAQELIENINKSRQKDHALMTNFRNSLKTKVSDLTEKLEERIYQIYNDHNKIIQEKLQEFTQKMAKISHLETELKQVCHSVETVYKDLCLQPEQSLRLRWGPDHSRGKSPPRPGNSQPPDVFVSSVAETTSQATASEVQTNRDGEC
The assay can be described thus: two-hybrid; Matchmaker Gold Y2H grid; Y187[pGBKT7-bait] mated with Y2HGold[pGADT7-target]; SD/-Ade/-His/-Leu/-Trp with aureobasidin A and X-α-Gal; four reporters ADE1, HIS3, AUR-1C, MEL1; 30°C, 5 days.

Assay [2] deals with human SYCP1 (1–811), yeast two-hybrid fusion (human) (UniProt Q15431). Described as above.
The target of assay [3] is T2, human SYCP3 (1–236), yeast two-hybrid fusion (human) (UniProt Q8IZU3).
T2 sequence: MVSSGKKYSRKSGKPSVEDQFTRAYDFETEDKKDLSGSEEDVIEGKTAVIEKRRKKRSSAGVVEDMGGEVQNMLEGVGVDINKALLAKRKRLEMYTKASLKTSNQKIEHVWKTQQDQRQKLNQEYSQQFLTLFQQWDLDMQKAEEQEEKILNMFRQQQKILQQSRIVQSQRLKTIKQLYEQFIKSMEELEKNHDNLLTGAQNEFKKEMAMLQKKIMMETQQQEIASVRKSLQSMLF
The description is as above.

The target of assay [4] is T3, human TEX12 (1–123), yeast two-hybrid fusion (human) (UniProt Q9BXU0).
T3 sequence: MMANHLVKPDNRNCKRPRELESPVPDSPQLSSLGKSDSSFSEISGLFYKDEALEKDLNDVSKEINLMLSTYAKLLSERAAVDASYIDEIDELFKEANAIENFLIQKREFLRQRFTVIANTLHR
The description is as above.

Assay [5] concerns the target MBP–TEX12_(87–123) (human) (UniProt Q9BXU0). The assay can be described thus: SEC-MALS; 100 µl at 1–5 mg ml^−1 on Superdex 200 10/300 GL; 20 mM Tris pH 8.0, 150 mM KCl, 2 mM DTT; purified complexes or purified fusion proteins; both purified.
Assay [6] has as its target T4, SYCE2_(57–165), tag cleaved (human, UniProt Q6PIF2 57-165).
T4 construct: also called central conserved region of SYCE2; source: E. coli Rosetta 2 (DE3), co-expressed with TEX12 constructs, co-purified (Ni–NTA, amylose, TEV cleavage, Resource Q); not shown: MBP, N-terminal, cleaved
T4 sequence (looked up): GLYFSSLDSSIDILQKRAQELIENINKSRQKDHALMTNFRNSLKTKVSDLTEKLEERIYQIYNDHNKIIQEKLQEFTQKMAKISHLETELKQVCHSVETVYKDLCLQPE
The assay can be described thus: SEC; size-exclusion chromatography of the co-purified, tag-cleaved SYCE2_(57–165)–TEX12 complex, fractions on Coomassie-stained SDS–PAGE, compared with His-TEX12; both purified.

Assay [7] addresses SYCE2_(57–165)–TEX12 complex (hetero-octamer) (human) (UniProt Q6PIF2+Q9BXU0). The assay can be described thus: negative-stain transmission electron microscopy; purified complexes at 100 µM on carbon-coated grids, 0.1 per cent uranyl acetate; filament formation; both purified.
The target in assay [8] is T5, MBP–SYCE2_(88–165) (human) (UniProt Q6PIF2).
T5 sequence: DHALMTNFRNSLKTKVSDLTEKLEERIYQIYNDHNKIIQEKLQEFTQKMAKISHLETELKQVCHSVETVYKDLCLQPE
The assay can be described thus: pull-down; amylose pull-down after co-expression in bacteria of MBP-fusion SYCE2 constructs (bait) with His-tagged TEX12 or SYCE2 constructs; lysis in 20 mM Tris pH 8.0, 500 mM KCl, 2 mM DTT; 1 h at 4°C; maltose elution; Coomassie-stained SDS–PAGE.

Assay [9] addresses T6, MBP–SYCE2_(57–165) (human) (UniProt Q6PIF2).
T6 sequence: T4 sequence (looked up)
The assay is described as above.

Assay [10] addresses SYCE2_(57–165)–TEX12_(49–123) complex (hetero-octamer) (human) (UniProt Q6PIF2+Q9BXU0). The assay can be described thus: negative-stain transmission electron microscopy; purified complexes at 100 µM on carbon-coated grids, 0.1 per cent uranyl acetate; filament formation; both purified.
The target in another assay is T7, MBP–SYCE2_(57–88) (human, UniProt Q6PIF2 57-88).
T7 construct: human SYCE2, residues 57–88 (α1 region); Monomer by SEC–MALS; also called α1 region of SYCE2; source: E. coli Rosetta 2 (DE3); co-expressed (pRSFDuet-1), in clarified lysate for the pull-down; individually expressed, purified on amylose resin for SEC–MALS; not shown: MBP, N-terminal, kept
T7 chain (looked up): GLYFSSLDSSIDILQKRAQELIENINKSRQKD
The assay can be described thus: SEC-MALS; 100 µl at 1–5 mg ml^−1 on Superdex 200 10/300 GL; 20 mM Tris pH 8.0, 150 mM KCl, 2 mM DTT; purified complexes or purified fusion proteins; both purified.

Results are given in words; binding and its absence hold for the method and conditions named. For some assays here: In cells and extracts the contact can be indirect. Some binding calls cover weakened binding; strength is not graded here. For some assays here: Where a sequence is shown, tags or fusion partners need not be part of it.

Among the data in paper PMC3411106, “Structural analysis of the human SYCE2–TEX12 complex provides molecular insights into synaptonemal complex assembly” (Open Biology, 2012) are binding values, retold here.

B1: human SYCP1 (1–811), yeast two-hybrid fusion (domain or fragment, UniProt Q15431 1-811)
chain: MEKQKPFALFVPPRSSSSQVSAVKPQTLGGDSTFFKSFNKCTEDDFEFPFAKTNLSKNGENIDSDPALQKVNFLPVLEQVGNSDCHYQEGLKDSDLENSEGLSRVYSKLYKEAEKIKKWKVSTEAELRQKESKLQENRKIIEAQRKAIQELQFGNEKVSLKLEEGIQENKDLIKENNATRHLCNLLKETCARSAEKTKKYEYEREETRQVYMDLNNNIEKMITAFEELRVQAENSRLEMHFKLKEDYEKIQHLEQEYKKEINDKEKQVSLLLIQITEKENKMKDLTFLLEESRDKVNQLEEKTKLQSENLKQSIEKQHHLTKELEDIKVSLQRSVSTQKALEEDLQIATKTICQLTEEKETQMEESNKARAAHSFVVTEFETTVCSLEELLRTEQQRLEKNEDQLKILTMELQKKSSELEEMTKLTNNKEVELEELKKVLGEKETLLYENKQFEKIAEELKGTEQELIGLLQAREKEVHDLEIQLTAITTSEQYYSKEVKDLKTELENEKLKNTELTSHCNKLSLENKELTQETSDMTLELKNQQEDINNNKKQEERMLKQIENLQETETQLRNELEYVREELKQKRDEVKCKLDKSEENCNNLRKQVENKNKYIEELQQENKALKKKGTAESKQLNVYEIKVNKLELELESAKQKFGEITDTYQKEIEDKKISEENLLEEVEKAKVIADEAVKLQKEIDKRCQHKIAEMVALMEKHKHQYDKIIEERDSELGLYKSKEQEQSSLRASLEIELSNLKAELLSVKKQLEIEREEKEKLKREAKENTATLKEKKDKKTQTFLLETPEIYWKLD
Turning to B1, the binding result is on record as “no binding” in assay [1], “binds” in assay [2], “no binding” in assay [3] and “no binding” in [4].

With DEIDELFKEANAIENFLIQKREFLRQRFTVIANTLHR (domain or fragment, UniProt Q9BXU0 87-123) [MBP–TEX12_(87–123)], the binding entry in assay [5] was “no binding (tested: 1–5 mg ml^−1 loaded)”.

B2: TEX12 (1–123), tag cleaved (natural protein, human, UniProt Q9BXU0 1-123, looked up)
chain: T3 sequence
notes: not shown: His-tag, N-terminal, cleaved
As for B2, in assay [6], the binding result is listed as “binds”.

B3: SYCE2_(57–165)–TEX12 complex (hetero-octamer) (complex, UniProt Q6PIF2 57-165; Q9BXU0 1-123)
chain 1: T4 sequence (looked up)
chain 2: T3 sequence
On to B3, for which, in [7], the binding entry was “binds”.

B4: His–SYCE2 (1–218) (protein, UniProt Q6PIF2 1-218)
chain: T1 sequence
In the case of B4, the binding entry in [8] and in [9] was “binds” throughout.

B5: SYCE2_(57–165)–TEX12_(49–123) complex (hetero-octamer) (complex, UniProt Q6PIF2 57-165; Q9BXU0 49-123)
chain 1: T4 sequence (looked up)
chain 2: KDEALEKDLNDVSKEINLMLSTYAKLLSERAAVDASYIDEIDELFKEANAIENFLIQKREFLRQRFTVIANTLHR
As to B5, in assay [10], the binding entry is “binds”.

In the case of GLYFSSLDSSIDILQKRAQELIENINKSRQKD (domain or fragment, UniProt Q6PIF2 57-88) [MBP–SYCE2_(57–88)], the binding result with MBP–SYCE2_(57–88) is recorded as “no binding (tested: 1–5 mg ml^−1 loaded)”.
